Experimental data taken from the supplement of paper PMC3334620.
The full ranking holds about 33,000 sequences; the median of “E-score (-0.5 to 0.5)” is about -0.013, and the highest 2% start at about 0.3. This is one part of the list.

Molecular target: T1, Msn1 (UniProt P22148)
T1 sequence: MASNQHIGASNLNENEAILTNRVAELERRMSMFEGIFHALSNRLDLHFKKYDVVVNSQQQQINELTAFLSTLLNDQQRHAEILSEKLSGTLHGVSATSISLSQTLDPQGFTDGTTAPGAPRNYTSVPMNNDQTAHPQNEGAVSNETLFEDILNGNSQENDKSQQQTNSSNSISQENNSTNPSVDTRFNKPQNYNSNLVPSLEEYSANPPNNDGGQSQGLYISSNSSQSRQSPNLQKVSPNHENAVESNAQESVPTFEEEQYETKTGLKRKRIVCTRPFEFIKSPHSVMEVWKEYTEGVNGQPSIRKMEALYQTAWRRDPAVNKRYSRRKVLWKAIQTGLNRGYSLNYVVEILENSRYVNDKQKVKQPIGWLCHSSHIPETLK
Assay: PBM E-score (8-mer binding enrichment) (E-score (-0.5 to 0.5)); higher = stronger / more preferred TF binding; most listed sequences are background and not binding sites
Settings: protein concentration: 200 nM; construct: GST-full length
In short: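 Each ungapped eight-base word and its reverse complement, pooled, received an E-score from the Universal PBM Analysis Suite. Underlying scans, normalised with masliner, recorded fluorescent anti-GST bound to GST-tagged yeast transcription factors. These were applied at about 100-200 nM to universal all-10-mer Agilent arrays double-stranded by primer extension.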

Sequence | PBM E-score
CAAAGCGA | 0.0917
CCTTGCTC | -0.197
CATGATAG | 0.157
CGAACTTC | 0.15
AATTCGTG | 0.0694
ATGCACAC | 0.0104
ATGGTACG | 0.131
GGTCTCAC | 0.0709
AGATTAAT | 0.0857
CCCACGGA | -0.0342
AAGGGTGT | -0.114
CTTTGTTC | 0.0603
AATACGGA | 0.0804
GGCGCCTA | -0.0165
TAGAGCTA | -0.118
AACGAGAG | 0.2
CTAAAGGC | -0.116
GGGCATAC | -0.178
CGTTTTTA | 0.248
ATTCAGAC | 0.257
CCTAGTGA | -0.172
CTCTGTCA | -0.0435
ACTGGTAT | -0.0668
ACTCGACA | 0.164
CTTTATAA | 0.177

Sequence | PBM E-score
CTACGATC | 0.0145
ACAATTGC | 0.191
CGGCGTAG | -0.209
ACATTTAC | 0.333
ACCGGGTC | -0.0182
CGCTACGC | -0.267
ACGCTCAT | -0.0301
ATTTCGGG | 0.0409
AAAGGGAC | 0.155
GGTCTGCA | -0.00247
GTTGAACA | -0.0283
GGTCCCCA | -0.264
TAAGAAAA | 0.00824
CGTTCCAA | -0.0264
CCACAAAC | 0.223
GCCCGTAC | -0.155
AGCCCTCA | -0.299
CTCAAAAA | 0.0872
AAACTAGG | 0.0937
TTCGGCAA | 0.0801
CAGATGCG | -0.0563
GTTTCATA | -0.107
CGCAACGA | -0.0698
ATTTCAGA | 0.191
AACTTCGG | 0.139

Sequence | PBM E-score
TCGGCGCA | 0.0772
GCAGCTGC | -0.0583
CTAGTGTA | 0.0569
AAAAACCC | -0.105
GATGCTCC | -0.183
CCTAGAGA | -0.119
CCTACGAG | -0.121
AGATGCTG | -0.0583
GAAAGGTA | 0.101
GCGTGCCC | -0.248
CTATCAAA | 0.0766
TCAAGCCA | -0.0791
CTCCGGGC | -0.104
CCCCGAGC | -0.133
TCTTGTAA | 0.134
CACCTGGA | -0.0458
CTCGGTTA | -0.0881
ACGGAAGG | -0.0988
CCGATTAG | 0.0933
AACATAAC | 0.0281
CCATTTAG | -0.0921
ATCCTGGG | -0.188
CCACCCTA | 9e-05
GGGCGCCA | -0.16
GACTCGGA | 0.0141

Sequence | PBM E-score
CCATTTCG | -0.147
CTGTCCAA | 0.287
GGTCTGAC | 0.0129
CGAAAGTA | 0.117
CTTACTTC | 0.0413
AGCTGTAA | -0.0638
CCGGTGCA | -0.198
TATGGTCA | 0.118
CCGGCAGG | -0.176
CTCATATC | -0.196
CCTTTGAG | -0.055
ATTCACGC | -0.149
ATGATGCC | -0.0448
AACCGGGC | -0.00703
GAAGCCCA | -0.265
GATGTACC | 0.0889
GACTACGA | -0.117
AGTTATGG | 0.169
CCCTTCAG | -0.0875
CACCGATA | 0.0165
ATCTCAGA | 0.0316
CACCTAAG | -0.0954
TATAAGGA | 0.17
TAAGTAGA | 0.0488
GATAGACC | -0.0609

Sequence | PBM E-score
CACCAGGC | -0.207
ATAAAAAC | 0.183
CAGTTTGC | 0.0174
CATAAAGG | 0.0405
CCTCCTAA | -0.0921
CAGTCTCC | -0.122
ATTGAGCC | 0.0496
AACGCCTT | -0.0776
CAGCTCAA | -0.0995
ATTTGGCC | 0.0647
CGGCGTTA | -0.0136
ATCATAAT | 0.144
CTCGGTTC | -0.122
AAGTATTC | 0.004
AGAGTGCT | -0.00552
TACGTAGA | -0.0145
ACAGCTCA | -0.0401
CATTCCGC | 0.0152
ATAGACAG | 0.202
GGATATAC | 0.0454
AAATCACC | 0.137
AATCCGCT | -0.127
GCACAGGA | 0.0138
GTCAAAGA | 0.00566
AACTTGAA | 0.101

Sequence | PBM E-score
CTTTCTGA | 0.158
CGGCGTGA | -0.154
CCTACCAA | 0.133
AGGGTGCA | -0.14
CCCTGCGA | -0.1
CGTCGGCA | -0.0575
CGTCGCAA | 0.0166
GAGAGTAA | 0.0458
ATAGGTTG | -0.0907
ACCACGCT | -0.091
TCACATAA | -0.0221
ACAATGTA | 0.156
GCCCGAGC | -0.146
ATCGTTAC | -0.137
ATAAAATC | 0.0924
ACGAGGTG | -0.0331
AGTCACTA | 0.0276
ATATGCTG | -0.0228
CAAGATGC | 0.208
GCAATACA | 0.0699
CCCCCATA | -0.4
GCCCGTTA | -0.266
CAAGTATC | -0.00272
CATCAGGC | -0.0359
GCTTCGTA | -0.0994

Sequence | PBM E-score
ACATCGCA | 0.00155
ACGGGCGC | -0.00574
AAGCGCTA | -0.0275
AATTAACT | -0.0545
AAGCGTAT | -0.121
CTCTACGC | -0.205
CAGCCTAC | -0.125
CCTCGCCG | -0.274
CGCGGGCA | 0.175
CAAACTGC | 0.166
AGCACGTA | -0.269
GCCCCTAA | -0.0108
CAGTGTGG | -0.254
ACGCGTAC | 0.0517
GATACGCC | -0.2
AAAGTCAG | 0.0767
CGCATTAG | -0.0867
CTTACGAC | 0.0141
CGTGCGAG | 0.00386
AAAACAAG | -0.0297
ACTGGACC | -0.137
ATCATGAA | 0.121
GAATGTGC | -0.148
AAGACATG | 0.337
CAGCGCAA | -0.0667

Sequence | PBM E-score
GGCCCAAA | -0.0383
CGGGCCAG | -0.264
CTTGGGGC | -0.221
CGTAAGCA | -0.216
AGATAAAC | 0.158
CAGTCCAG | -0.141
AGCCTCTC | -0.235
CAGCAGCG | -0.00664
CCTGCGAC | -0.119
CCACACCG | -0.119
AATGCAGT | -0.00858
CCATGTGC | -0.0705
AGCCAGGG | -0.297
ACTGGATG | -0.0774
GACCCCAA | -0.0989
AGTTTAAA | 0.153
ATGAGGGA | -0.2
AGATGTTG | 0.0219
ACAGTTAT | 0.052
AGCTAGCA | -0.041
AGGTCGGG | -0.0944
GACGCTCA | 0.0746
GCAGAAGC | -0.164
ACAAAACC | 0.239
GACAGATC | 0.143

Sequence | PBM E-score
CATTTATC | 0.194
AACTCCCT | -0.127
GAGGGTAA | -0.114
ACCTCGGG | 0.0624
ACTCAATG | -0.0638
GTTTTATA | 0.168
ACGATTCT | 0.0879
ACTCCGAG | 0.224
GACGACCC | -0.102
GCATCTAC | -0.0222
CTGCTCTC | -0.137
CGCCGTAC | -0.0838
GCGGGGCA | -0.147
CAGCTTTC | -0.109
AACAGAAG | -0.0418
CCACAAGC | -0.0513
CAACGCCG | -0.049
ACTCAGTA | 0.0941
GACTCAGC | -0.151
